Measured values: PubChem BioAssay AID1479 (National Center for Advancing Translational Sciences (NCATS), 2009)
Screen size: about 280,000 compounds; about 820 (0.29%) were called active. Not shown: some 1% with an inconclusive outcome. Calls come from the whole dose curve; as a rule, active = well fitted curve in either direction with a large enough effect; inconclusive = small, poorly fitted or top-dose-only effect; inactive = flat fitted curve, though single readings scatter. The entries are a selection whose mix differs from that of the whole data set. The source holds several records for some structures; these can differ, active in one and inactive in another.

Assay: Total Fluorescence Counterscreen for Inhibitors of the Interaction of Thyroid Hormone Receptor and Steroid Receptor Coregulator 2
Details: TRb/SRC2 Texas Red total fluorescence interference; series mostly up to 106 µM; fluorescence change, negative = quenching: at the top concentration
From the text: NIH Molecular Libraries Probe Production Network [MLPCN]
NIH Chemical Genomics Center [NCGC]
Assay Provider: R. Kip Guy, St. Jude Children's Research Hospital
Thyroid receptor (TR) regulates many homeostatic processes including basal metabolism, cardiovascular function, body weight, and lipid trafficking. TR modulators are potential therapeutics for obesity and hyperlipidemias but current thyroid analogs have undesirable side effects, particularly cardiac stimulation. To identify inhibitors that specifically prevent the interaction of TR with the steroid receptor […] 2 (SRC2), a fluorescence polarization assay was screened. This assay detects interaction of the ligand-binding domain of human TRb with a Texas Red labeled SRC2 peptide, corresponding to a 20 amino acid region of the nuclear receptor interaction domain (Arnold et al., 2006). Total fluorescence (555 nm excitation and 632 nm emission) was measured to identify potential fluorescent and light absorbing compounds. Such compounds may be artifacts that interfere with the fluorescence polarization assay.
Arnold, L. A.; Estebanez-Perpina, E.; Togashi, M.; Shelat, A.; Ocasio, C. A.; McReynolds, A. C.; Nguyen, P.; Baxter, J. D.; Fletterick, R. J.; Webb, P.; Guy, R. K. A high-throughput screening method to identify small molecule inhibitors of thyroid hormone receptor coactivator binding. Sci STKE 2006, p 13.
NCGC Assay Protocol Summary:
For screening, 5 uL/well 0.6 uM TRb and 20 nM SRC2 Texas Red in protein buffer (20mM Tris hydrochloride, 100mM NaCl, 10% glycerol, 1mM EDTA, 0.01% NP-40, 1mM DTT, 1uM T3 and 5% DMSO) was dispensed into black solid 1536-well plates (Grenier) using a solenoid-based dispenser. Following transfer of 23 nL compound or DMSO vehicle by a pin tool, the plates were centrifuged 15 s at 1000 RPM and incubated 5 hr at ambient temperature. The plates were read by an Envision (Perkin Elmer) to detect fluorescence polarization of SRC2 Texas Red (555 nm excitation and 632 nm emission). Data were normalized to unbound (all components except TRb) and bound SRC2 Texas Red controls. Total fluorescence (TF) was calculated as follows: TF = S + 2P where S and P are fluorescence readings in the parallel and perpendicular channels, respectively.
Keywords: NIH Roadmap, MLPCN, MLI, MLSMR, qHTS, NCGC, qHTS, thyroid hormone receptor, steroid receptor coactivator, fluorescence polarization
% is set by controls: 0 for no effect and ±100 for the full control effect; potency is the fitted concentration of half-maximal effect; tags give direction and shape of the fitted curve or compound fluorescence and quenching.

| SMILES | Potency | fluorescence change, negative = quenching |
| --- | --- | --- |
| COc1ccc(C(=O)N2CCCC2=O)cc1 | inactive |  |
| C=CCN1CCc2cccc3c2C1Cc1ccc(O)c(O)c1-3 (configuration not stated) |  | inactive: -0.538% |
| CN1C(=O)CCS(=O)(=O)[C@H]1c1ccc(Cl)cc1 |  | inactive: -1.64% |
| CC(C)[C@@]1(NC(=O)[C@@H]2C[C@@H]3c4cccc5[nH]cc(c45)C[C@H]3N(C)C2)O[C@@]2(O)[C@@H]3CCCN3C(=O)[C@H](Cc3ccccc3)N2C1=O | inactive |  |
| CC(C)[C@@]1(NC(=O)[C@@H]2C[C@H]3c4cccc5[nH]cc(c45)C[C@@H]3N(C)C2)O[C@@]2(O)[C@H]3CCCN3C(=O)[C@H](Cc3ccccc3)N2C1=O | inactive |  |
| Cc1ccc(OCC(=O)Nc2ccc(Cl)cc2C(=O)c2ccccc2)cc1 |  | inactive: -3.05% |
| CC(C)(O)C(Cl)(Cl)Cl |  | inactive: -0.616% |
| [O]=[Cr](=[O])([OH])[O][Cr](=[O])(=[O])[OH] |  | inactive: -5.76% |
| C#CC1(O)CCC2C3CCC4=CC(=O)CCC4(C)C3CCC21C (configuration not stated) |  | inactive: 0.312% |
| CC1CCC2(OC1)OC1CC3C4CC[C@@H]5CC(O)CC[C@@]5(C)C4CC(=O)[C@]3(C)C1C2C (some centres not stated) |  | inactive: -3.08% |
| CN(C)C1C(=O)C(C(N)=O)=C(O)[C@@]2(O)C(=O)C3=C(O)c4c(O)ccc(Cl)c4[C@](C)(O)C3CC12 (some centres not stated) |  | inactive: -4.93% |
| CCCN(CCC)CCc1c[nH]c2ccc(C(N)=O)cc12 |  | inactive: -0.378% |
| CN(C)C1C(=O)C(C(N)=O)=C(O)[C@@]2(O)C(=O)C3=C(O)c4c(O)cccc4[C@@](C)(O)C3C[C@@H]12 (some centres not stated) |  | inactive: -6.81% |
| CN1Cc2ccccc2[C@@H]2c3cccc4[nH]cc(c34)C[C@H]21 |  | inactive: 23.3% |
| CNC(=O)Oc1ccc2c(c1)[C@@]1(C)CCN(C)C1N2C (some centres not stated) | inactive |  |
| CC(C)N(CCC(C(N)=O)(c1ccccc1)c1ccccn1)C(C)C (configuration not stated) | inactive |  |
| C[C@H]1CCC/C=C/C2C[C@H](O)CC2[C@H](O)/C=C/C(=O)O1 (some centres not stated) |  | inactive: -4.61% |
| C/C(O)=C(/C#N)C(=O)Nc1cc(Br)ccc1Br |  | inactive: -2.55% |
| O=C(Cc1cc(=O)[nH][nH]1)N/N=C/c1ccccc1Cl | active: 1410 µM [quencher] |  |

| SMILES | Potency | fluorescence change, negative = quenching |
| --- | --- | --- |
| CNC(=O)Oc1ccc2c(c1)C1(C)CCN(C)C1N2C (configuration not stated) |  | inactive: -2.37% |
| C#C[C@]1(O)CC[C@H]2[C@@H]3CCC4=CC(=O)CC[C@]4(C)[C@H]3CC[C@@]21C |  | inactive: -2.89% |
| CC[C@H](CO)Nc1nc(NCc2ccccc2)c2ncn(C(C)C)c2n1 | inactive |  |
| CN(C)C1C(=O)C(C(N)=O)C(=O)C2(O)C(=O)C3C(=O)c4c(O)cccc4C(C)(O)C3C(O)C12 (configuration not stated) | active: 28.2 µM [quencher] |  |
| C[N+]1(C)CCC(OC(=O)C(c2ccccc2)c2ccccc2)CC1 | inactive |  |
| CN(C)C1C(=O)C(C(N)=O)=C(O)[C@@]2(O)C(=O)C3=C(O)c4c(O)cccc4[C@](C)(O)C3C(O)C12 (some centres not stated) |  | inactive: -16.6% |
| O=C1NC(=O)N(c2ccccc2)C(=O)/C1=C\c1ccc([N+](=O)[O-])s1 |  | inactive: -2.52% |
| ClC1=C(Cl)C(Cl)(C2(Cl)C(Cl)=C(Cl)C(Cl)=C2Cl)C(Cl)=C1Cl | active: 31.6 µM [quencher] |  |
| C[C@H]1CCC/C=C/C2C[C@H](O)C[C@H]2[C@H](O)/C=C/C(=O)O1 (some centres not stated) | inactive |  |
| CC(C)NC[C@@H](O)COc1cccc2[nH]ccc12 |  | inactive: -2.61% |
| CC1CCC/C=C/C2CC(O)CC2C(O)/C=C/C(=O)O1 (configuration not stated) |  | inactive: -0.057% |
| COc1ccc(N2C(=O)NC(=O)/C(=C/c3ccc([N+](=O)[O-])s3)C2=O)cc1 |  | inactive: 1.24% |
| C[C@H]1CCCC=CC2C[C@H](O)C[C@@H]2[C@H](O)/C=C\C(=O)O1 (some centres not stated) |  | inactive: -1.31% |
| N[C@H](CCCCCP(=O)(O)O)C(=O)O | inactive |  |
| COCC(C)N(C(=O)CCl)c1c(C)csc1C (configuration not stated) |  | inactive: -0.785% [at 201 µM] |
| CCCN1CCCC2Cc3[nH]ncc3CC21 (configuration not stated) |  | inactive: -5.84% |
| CC(C)(C)[C@]1(O)C[C@@H]2OC(=O)CC23C(=O)O[C@@H]2OC(=O)[C@H](O)C231 (some centres not stated) |  | inactive: -0.729% |
| CC(C)[C@@]1(NC(=O)[C@H]2CC3c4cccc5[nH]cc(c45)C[C@H]3N(C)C2)O[C@@]2(O)C3CCCN3C(=O)[C@@H](Cc3ccccc3)N2C1=O (some centres not stated) | inactive |  |
| NC[C@@H](CC(=O)O)c1ccc(Cl)cc1 |  | inactive: 0.285% |

| SMILES | Potency | fluorescence change, negative = quenching |
| --- | --- | --- |
| CC[C@@H](CO)NC(=O)[C@H]1C=C2c3cccc4c3c(cn4C)C[C@H]2N(C)C1 | inactive |  |
| CCCN1CCC[C@@H]2Cc3[nH]ncc3C[C@H]21 | inactive |  |
| Nc1nc2ccc(Cl)cc2c2nc(-c3ccco3)nn12 | inactive |  |
| c1cncc(C2=NCCC2)c1 |  | inactive: -0.707% |
| CC(=O)OC1C[C@H](O[C@@H]2C(O)C[C@H](O[C@@H]3C(O)C[C@@H](OC4CC[C@]5(C)C(CCC6C5CC(O)[C@@]5(C)C(C7=CC(=O)OC7)CC[C@@]65O)C4)OC3C)OC2C)O[C@H](C)[C@H]1O[C@H]1OC(CO)C(O)C(O)C1O (some centres not stated) |  | inactive: -1.81% |
| CC(C)(C)[C@]1(O)C[C@@H]2OC(=O)C[C@@]23C(=O)O[C@@H]2OC(=O)[C@H](O)[C@]213 | inactive |  |
| O=c1cc(-c2ccc(O)c(O)c2)oc2cc(O)cc(O)c12 | inactive |  |
| C[N+]1=C(/C=C/Nc2ccccc2)C(C)(C)c2ccccc21 |  | inactive: -3.96% |
| CC(C)N(CC[C@@](C(N)=O)(c1ccccc1)c1ccccn1)C(C)C |  | inactive: -0.679% |
| FC(F)(F)c1cccc(N2CCNCC2)c1 | inactive |  |
| COC[C@H]1OC(=O)c2coc3c2[C@@]1(C)C1=C(C3=O)[C@H]2CCC(=O)[C@@]2(C)C[C@H]1OC(C)=O |  | inactive: 23.9% |
| CN(C)[C@@H]1C(=O)C(C(N)=O)=C(O)[C@]2(O)C(=O)C3=C(O)c4c(O)cccc4[C@@](C)(O)[C@H]3[C@H](O)[C@@H]12 |  | inactive: -7.77% [at 53 µM] |
| CN(C)[C@@H]1C(=O)C(C(N)=O)=C(O)[C@@]2(O)C(=O)C3=C(O)c4c(O)cccc4[C@@](C)(O)[C@H]3[C@H](O)[C@@H]12 | inactive |  |
| CN1C(=O)CCS(=O)(=O)C1c1ccc(Cl)cc1 (configuration not stated) | inactive |  |
| CCC1/C=C/C=CCC(C)C(O)[C@@](C)(O)C(=O)C(C)C(O)C(C)C(=O)C(C)C(O)C(C)C=CC(=O)O[C@H]2C(C)C(CC1)O[C@]1(CCC(C)C(CC(C)O)O1)C2C (some centres not stated) |  | inactive: -1.66% |
| CC(C)NC[C@H](O)COc1cccc2[nH]ccc12 | inactive |  |
| NCC(CP(=O)(O)O)c1ccc(Cl)cc1 (configuration not stated) |  | inactive: -2.88% |
| O=c1c(O)c(-c2ccc(O)c(O)c2)oc2cc(O)cc(O)c12 | inactive |  |
| c1ccc(C2CC2)c(OCC2=NCCN2)c1 | inactive |  |
